In the supplement of paper PMC8728848:
The other results are listed elsewhere or left out.

What was measured:
Test in all cases: glycan array binding signal (z-score within array); higher = stronger binding
Details in all cases: glycan notation: IUPAC condensed, linker removed
[1] = molecular target: Fuc(a1-2)Gal
How it was run: (§1)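 Glycan array data were curated from 3228 arrays in the Consortium for Functional Glycomics database and kept only where the protein sequence was available. Glycan names were converted to IUPAC-condensed notation, and columns mapping to the same glycan were averaged. The binding signal is a within-array Z-score, averaged across arrays of the same protein sequence at different concentrations or buffers and across linkers. Negative Z-scores can be read as non-binding.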

[2] = molecular target: Fuc(a1-2)Gal(b1-3)GalNAc
How it was run: as §1

[3] = molecular target: Fuc(a1-2)Gal(b1-3)GalNAc(b1-3)Gal
How it was run: as §1

[4] = molecular target: Fuc(a1-2)Gal(b1-3)GalNAc(b1-3)Gal(a1-4)Gal(b1-4)Glc
How it was run: as §1

[5] = molecular target: Fuc(a1-2)Gal(b1-3)GalNAc(b1-3)Gal(b1-4)Glc
How it was run: as §1

[6] = molecular target: Fuc(a1-2)Gal(b1-3)GalNAc(b1-4)[Neu5Ac(a2-3)]Gal(b1-4)Glc
How it was run: as §1

[7] = molecular target: Fuc(a1-2)Gal(b1-3)[Fuc(a1-4)]GlcNAc
How it was run: as §1

[8] = molecular target: Fuc(a1-2)Gal(b1-4)Glc
How it was run: as §1

[9] = molecular target: Fuc(a1-2)Gal(b1-4)GlcNAc
How it was run: as §1

[10] = molecular target: Fuc(a1-2)Gal(b1-4)GlcNAc(b1-3)Gal(b1-4)GlcNAc
How it was run: as §1

[11] = molecular target: Fuc(a1-2)Gal(b1-4)GlcNAc(b1-3)Gal(b1-4)GlcNAc(b1-3)Gal(b1-4)GlcNAc
How it was run: as §1

[12] = molecular target: Fuc(a1-2)Gal(b1-4)[Fuc(a1-3)]GalNAc(b1-3)Gal(b1-4)[Fuc(a1-3)]GlcNAc
How it was run: as §1

[13] = molecular target: Fuc(a1-2)Gal(b1-4)[Fuc(a1-3)]GalNAc(b1-3)Gal(b1-4)[Fuc(a1-3)]GlcNAc(b1-3)Gal(b1-4)[Fuc(a1-3)]GalNAc
How it was run: as §1

[14] = molecular target: Fuc(a1-2)Gal(b1-4)[Fuc(a1-3)]GlcNAc
How it was run: as §1

[15] = molecular target: Fuc(a1-2)GlcNAc
How it was run: as §1

[16] = molecular target: Fuc(a1-2)[Gal(a1-3)]Gal
How it was run: as §1

[17] = molecular target: Fuc(a1-2)[Gal(a1-3)]Gal(b1-3)GlcNAc
How it was run: as §1

[18] = molecular target: Fuc(a1-2)[Gal(a1-3)]Gal(b1-4)Glc
How it was run: as §1

[19] = molecular target: Fuc(a1-2)[Gal(a1-3)]Gal(b1-4)GlcNAc
How it was run: as §1

[20] = molecular target: Fuc(a1-2)[Gal(a1-3)]Gal(b1-4)[Fuc(a1-3)]GlcNAc
How it was run: as §1

[21] = molecular target: Fuc(a1-2)[Gal(a1-4)]Gal(b1-4)GalNAc
How it was run: as §1

[22] = molecular target: Fuc(a1-2)[GalNAc(a1-3)]Gal
How it was run: as §1

[23] = molecular target: Fuc(a1-2)[GalNAc(a1-3)]Gal(b1-3)GlcNAc
How it was run: as §1

[24] = molecular target: Fuc(a1-2)[GalNAc(a1-3)]Gal(b1-4)Glc
How it was run: as §1

[25] = molecular target: Fuc(a1-2)[GalNAc(a1-3)]Gal(b1-4)GlcNAc
How it was run: as §1

[26] = molecular target: Fuc(a1-2)[GalNAc(a1-3)]Gal(b1-4)[Fuc(a1-3)]GlcNAc
How it was run: as §1

[27] = molecular target: Fuc(a1-2)[GalNAc(a1-4)]Gal(b1-4)GlcNAc
How it was run: as §1

[28] = molecular target: Fuc(a1-3)GlcNAc
How it was run: as §1

[29] = molecular target: Fuc(a1-3)[Gal(b1-4)]GlcNAc
How it was run: as §1

[30] = molecular target: Fuc(a1-3)[Gal(b1-4)]GlcNAc(b1-4)Gal(b1-4)[Fuc(a1-3)]GlcNAc
How it was run: as §1

[31] = molecular target: Fuc(a1-3)[Gal(b1-4)]GlcNAc(b1-4)Gal(b1-4)[Fuc(a1-3)]GlcNAc(b1-4)Gal(b1-4)[Fuc(a1-3)]GlcNAc
How it was run: as §1

[32] = molecular target: Fuc(a1-3)[Gal3S(b1-4)]GlcNAc
How it was run: as §1

[33] = molecular target: Fuc(a1-3)[GalNAc(b1-4)]Gal(b1-4)GlcNAc
How it was run: as §1

[34] = molecular target: Fuc(a1-4)GlcNAc
How it was run: as §1

[35] = molecular target: Fuc(b1-3)GlcNAc
How it was run: as §1

[36] = molecular target: Gal(a1-2)Gal
How it was run: as §1

[37] = molecular target: Gal(a1-3)Gal
How it was run: as §1

[38] = molecular target: Gal(a1-3)Gal(b1-3)Glc
How it was run: as §1

[39] = molecular target: Gal(a1-3)Gal(b1-3)GlcNAc
How it was run: as §1

[40] = molecular target: Gal(a1-3)Gal(b1-4)GlcNAc
How it was run: as §1

[41] = molecular target: Gal(a1-3)Gal(b1-4)[Fuc(a1-3)]GalNAc
How it was run: as §1

[42] = molecular target: Gal(a1-3)GlcNAc
How it was run: as §1

[43] = molecular target: Gal(a1-3)[Gal(a1-4)]Gal(b1-4)GlcNAc
How it was run: as §1

[44] = molecular target: Gal(a1-4)Gal(b1-4)Gal
How it was run: as §1

[45] = molecular target: Gal(a1-4)Gal(b1-4)GalNAc
How it was run: as §1

[46] = molecular target: Gal(a1-4)GlcNAc
How it was run: as §1

[47] = molecular target: Gal(a1-6)Glc
How it was run: as §1

[48] = molecular target: Gal(b1-2)Gal
How it was run: as §1

[49] = molecular target: Gal(b1-3)Gal
How it was run: as §1

[50] = molecular target: Gal(b1-3)GalNAc
How it was run: as §1

[51] = molecular target: Gal(b1-3)GalNAc(b1-3)Gal(a1-4)Gal(b1-4)Glc
How it was run: as §1

[52] = molecular target: Gal(b1-3)GalNAc(b1-3)Gal(b1-4)Glc
How it was run: as §1

[53] = molecular target: Gal(b1-3)GalNAc(b1-3)Gal(b1-4)GlcNAc
How it was run: as §1

[54] = molecular target: Gal(b1-3)GalNAc(b1-4)Gal(b1-4)Glc
How it was run: as §1

[55] = molecular target: Gal(b1-3)GalNAc(b1-4)[Neu5Ac(a2-3)]Gal(b1-4)Glc
How it was run: as §1

[56] = molecular target: Gal(b1-3)[Fuc(a1-4)]GlcNAc
How it was run: as §1

[57] = molecular target: Gal(b1-3)[Fuc(a1-4)]GlcNAc(b1-3)Gal(b1-4)GlcNAc
How it was run: as §1

[58] = molecular target: Gal(b1-3)[Fuc(a1-4)]GlcNAc(b1-3)Gal(b1-4)[Fuc(a1-3)]GlcNAc
How it was run: as §1

[59] = molecular target: Gal(b1-3)[GlcNAc(b1-6)]GalNAc
How it was run: as §1

[60] = molecular target: Gal(b1-3)[GlcNAc(b1-6)]GlcNAc
How it was run: as §1

B1: Crocus Lectin (Crocus vernus), Q9FVA1 (protein)
chain: MAKSLVLSSLLLALLLAAPLASLADNNVLLTGDVLHTDNQLSFESAAFVMQGDCNLVLYNEAGGFQSNTHGRGVGCTLRLNNFGQLEIHSANSNTPVWVSLRNGIPVRGDYAAVLGPDQHVTIYGPAIWSTPAPNRHERGATVSNIPRVRNVLFSSQVMSDNAQLATRDYSLVMRDDCNLALTKGSKTNIVWESGTSGRGQHCFMRLGHTGLIEISDDRLNTVWRSNTVGQEGDYVLILQINGQAVVYGPAVWSTASPARGGASAAL
B1 was tested, and the “glycan array binding signal (z-score)” value [1] was -0.176, the “glycan array binding signal (z-score)” value [2] was -0.163 and the “glycan array binding signal (z-score)” value [3] was -0.174. The “glycan array binding signal (z-score)” value [4] was -0.162, the “glycan array binding signal (z-score)” value [5] was -0.185 and the “glycan array binding signal (z-score)” value [6] was -0.131. For the same binder, the “glycan array binding signal (z-score)” value [7] was -0.19, the “glycan array binding signal (z-score)” value [8] was -0.184 and the “glycan array binding signal (z-score)” value [9] was -0.173. For the same binder, the “glycan array binding signal (z-score)” value [10] was -0.161, the “glycan array binding signal (z-score)” value [11] was -0.146 and the “glycan array binding signal (z-score)” value [12] was -0.182. For the same binder, the “glycan array binding signal (z-score)” value [13] was -0.172, the “glycan array binding signal (z-score)” value [14] was -0.181 and the “glycan array binding signal (z-score)” value [15] was -0.156. For the same binder, the “glycan array binding signal (z-score)” value [16] was -0.181, the “glycan array binding signal (z-score)” value [17] was -0.175 and the “glycan array binding signal (z-score)” value [18] was -0.168. The “glycan array binding signal (z-score)” value [19] was -0.175, the “glycan array binding signal (z-score)” value [20] was -0.178 and the “glycan array binding signal (z-score)” value [21] was -0.185. For the same binder, the “glycan array binding signal (z-score)” value [22] was -0.115, the “glycan array binding signal (z-score)” value [23] was -0.144 and the “glycan array binding signal (z-score)” value [24] was -0.181. The “glycan array binding signal (z-score)” value [25] was -0.177, the “glycan array binding signal (z-score)” value [26] was -0.159 and the “glycan array binding signal (z-score)” value [27] was -0.183. The “glycan array binding signal (z-score)” value [28] was -0.17, the “glycan array binding signal (z-score)” value [29] was -0.17 and the “glycan array binding signal (z-score)” value [30] was -0.177. The “glycan array binding signal (z-score)” value [31] was -0.186, the “glycan array binding signal (z-score)” value [32] was -0.187 and the “glycan array binding signal (z-score)” value [33] was -0.187. The “glycan array binding signal (z-score)” value [34] was -0.194, the “glycan array binding signal (z-score)” value [35] was -0.163 and the “glycan array binding signal (z-score)” value [36] was -0.174. The “glycan array binding signal (z-score)” value [37] was -0.177, the “glycan array binding signal (z-score)” value [38] was -0.169 and the “glycan array binding signal (z-score)” value [39] was -0.177. The “glycan array binding signal (z-score)” value [40] was -0.172, the “glycan array binding signal (z-score)” value [41] was -0.181 and the “glycan array binding signal (z-score)” value [42] was -0.181. For the same binder, the “glycan array binding signal (z-score)” value [43] was -0.177, the “glycan array binding signal (z-score)” value [44] was -0.177 and the “glycan array binding signal (z-score)” value [45] was -0.185. For the same binder, the “glycan array binding signal (z-score)” value [46] was -0.183, the “glycan array binding signal (z-score)” value [47] was -0.179 and the “glycan array binding signal (z-score)” value [48] was -0.167. The “glycan array binding signal (z-score)” value [49] was -0.192, the “glycan array binding signal (z-score)” value [50] was 0.009 and the “glycan array binding signal (z-score)” value [51] was -0.181. The “glycan array binding signal (z-score)” value [52] was -0.192, the “glycan array binding signal (z-score)” value [53] was -0.147 and the “glycan array binding signal (z-score)” value [54] was 0.044. The “glycan array binding signal (z-score)” value [55] was 0.027, the “glycan array binding signal (z-score)” value [56] was -0.136 and the “glycan array binding signal (z-score)” value [57] was -0.19. For the same binder, the “glycan array binding signal (z-score)” value [58] was -0.071, the “glycan array binding signal (z-score)” value [59] was -0.197 and the “glycan array binding signal (z-score)” value [60] was -0.143.
